Sequences with one replicate were seen in a single cluster, so their values are uncertain.
These sequences were tested on ATP (assay: switch fluorescence ratio, 500 uM ATP over buffer (Cy3 cluster intensity, sum of 5 cycles each) (fold (ratio)); higher = stronger signal-on switching upon ATP binding; sequences stand for … in TCGTCGGCAGCGTCAGATGTGTATAAGAGACAGTTTTTTTTTTTTTTTTTTTTTTTTT…TC). Settings: aptamer strand: ATP DNA aptamer (quencher-CACCTGGGGGAGTATTGCGGAGGAAGG + anchor), 100 nM annealed; ATP concentration: 500 uM; one replicate.
Summary of the method: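 Switching-strand clusters labelled with Cy3 on a modified Illumina MiSeq flow-cell were annealed to 100 nM quencher-labelled ATP aptamer, imaged in selection buffer, and re-imaged after 15 min with 500 uM ATP at 22 °C. This was done over five cycles with NaOH stripping and re-annealing in between. The fluorescence ratio is summed target-cycle over summed buffer-cycle Cy3 intensity per cluster, averaged per switch-domain sequence, excluding clusters outside 100-1000 RFU.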
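Also: ATP exposure 15 min at 22 °C before imaging.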

Row | Sequence | switch fluorescence ratio
1 | TTGAAGAAGA | 0.968
2 | TTGAAGCGAT | 1.07
3 | TTGAAGGTG | 1.3
4 | TTGAATACGT | 1.02
5 | TTGAATGACG | 0.965
6 | TTGACACTTA | 1.03
7 | TTGACATAAT | 0.976
8 | TTGACCACCC | 1.06
9 | TTGACCAGTG | 0.963
10 | TTGACCTCGG | 1.01
11 | TTGACGACGT | 1.18
12 | TTGACGCCCT | 1.12
13 | TTGACGCGGG | 0.997
14 | TTGACTCAAC | 1.11
15 | TTGAGAAACG | 1.02
16 | TTGAGAGCCC | 0.959
17 | TTGAGAGGTC | 0.933
18 | TTGAGCTCCA | 0.985
19 | TTGAGGCTCC | 0.964
20 | TTGAGGTCAA | 1.76
21 | TTGAGGTTTC | 0.979
22 | TTGAGTCTC | 0.987
23 | TTGAGTCTGC | 1.05
24 | TTGATACCAA | 1.03
25 | TTGATAGA | 1.03

Row | Sequence | switch fluorescence ratio
26 | TTGATCGTCG | 0.961
27 | TTGATGATG | 0.974
28 | TTGATGATTT | 0.968
29 | TTGATGTGCC | 1.03
30 | TTGATTAGAC | 1.03
31 | TTGATTCTAG | 1.01
32 | TTGCAACGTC | 0.983
33 | TTGCAAGGG | 1.01
34 | TTGCAAGGGG | 0.988
35 | TTGCAATTCT | 1.59
36 | TTGCACCAGC | 1.08
37 | TTGCAGATCC | 0.989
38 | TTGCAGCGGT | 1.17
39 | TTGCAGCGTC | 1.02
40 | TTGCAGGCTG | 1.02
41 | TTGCAGTTAT | 0.973
42 | TTGCATCATT | 1.03
43 | TTGCATGCCA | 0.981
44 | TTGCATGTAT | 0.99
45 | TTGCCAACGC | 1.03
46 | TTGCCATCTT | 0.999
47 | TTGCCATGGA | 1.01
48 | TTGCCCCGCT | 1.46
49 | TTGCCCGACT | 1
50 | TTGCCCTCGC | 1

Row | Sequence | switch fluorescence ratio
51 | TTGCCGCATT | 1.06
52 | TTGCCTGTCG | 0.946
53 | TTGCCTTAGA | 0.975
54 | TTGCGAACTC | 1.35
55 | TTGCGAAGGA | 1.01
56 | TTGCGCGATG | 1.08
57 | TTGCGCGTAA | 1.22
58 | TTGCGGAAAG | 0.986
59 | TTGCGGATCT | 1.04
60 | TTGCGGGAGG | 0.968
61 | TTGCGGGGCG | 1.11
62 | TTGCGGTCTA | 1.03
63 | TTGCGTAATT | 1.02
64 | TTGCGTCTGT | 1.03
65 | TTGCGTGAGG | 1.1
66 | TTGCTACATT | 1.04
67 | TTGCTACTT | 0.978
68 | TTGCTATCTA | 1.05
69 | TTGCTCACTG | 0.996
70 | TTGCTCCTGC | 0.998
71 | TTGCTCGC | 0.97
72 | TTGCTCTAGT | 1
73 | TTGCTGACTG | 0.986
74 | TTGCTTCCTG | 1.05
75 | TTGCTTTCCA | 1.03

Row | Sequence | switch fluorescence ratio
76 | TTGCTTTGGC | 0.976
77 | TTGGAACTAA | 1.02
78 | TTGGACCATA | 1.04
79 | TTGGACCGTC | 1.03
80 | TTGGACGCAA | 1.38
81 | TTGGAGCTCT | 0.959
82 | TTGGAGGCTA | 1.01
83 | TTGGCATGAA | 1.01
84 | TTGGCCGTGG | 0.998
85 | TTGGCGAAGC | 1.02
86 | TTGGCTCCGT | 1.03
87 | TTGGCTCTCG | 0.969
88 | TTGGCTGCTG | 0.974
89 | TTGGGACGCT | 0.975
90 | TTGGGAGTCG | 1.01
91 | TTGGGGCTA | 1.02
92 | TTGGGGTCAC | 0.975
93 | TTGGGTCGG | 0.958
94 | TTGGGTGTAC | 1.04
95 | TTGGGTTA | 1.07
96 | TTGGTACCCA | 1.01
97 | TTGGTCCCTA | 1.01
98 | TTGGTCCTGT | 1.02
99 | TTGGTCTGTA | 0.983
100 | TTGGTCTTCT | 0.95
